The other results are listed elsewhere or left out. These are noisy estimates, calculated here from bound and input reads.
Each sequence was assayed against T1, Pho4 (S. cerevisiae) (UniProt P07270) (assay: relative binding free energy (BET-seq); higher = weaker binding). Conditions: reference: library average.
T1 sequence: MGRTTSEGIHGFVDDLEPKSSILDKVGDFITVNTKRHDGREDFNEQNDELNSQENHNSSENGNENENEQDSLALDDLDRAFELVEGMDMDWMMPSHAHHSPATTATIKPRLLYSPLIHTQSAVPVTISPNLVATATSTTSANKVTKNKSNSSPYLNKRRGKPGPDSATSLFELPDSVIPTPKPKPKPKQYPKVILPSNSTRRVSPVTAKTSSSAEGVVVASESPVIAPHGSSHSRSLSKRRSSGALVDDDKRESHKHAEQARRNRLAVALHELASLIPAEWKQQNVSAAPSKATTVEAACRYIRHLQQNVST

Sequence | relative binding free energy
ATAAACACGTGTGCGG | -0.01 kcal/mol
TTTAACACGTGATTAT | 0.18 kcal/mol
AGAGGCACGTGTGATA | 0 kcal/mol
GTATGCACGTGCAGGG | 0.06 kcal/mol
TGGTGCACGTGGGTAC | -0.11 kcal/mol
TGCTACACGTGTGATT | 0.26 kcal/mol
GGATACACGTGTAGTT | 0.17 kcal/mol
TTTAACACGTGTGAGG | 0.01 kcal/mol
CTGTGCACGTGGGGCT | -0.12 kcal/mol
TGCTTCACGTGCGGGT | 0.32 kcal/mol
AGTTTCACGTGAGTGC | 0.43 kcal/mol
GTAGTCACGTGGACAT | 0.18 kcal/mol
GGCTTCACGTGTAGTT | 0.38 kcal/mol
GGATTCACGTGTATGC | 0.29 kcal/mol
AGGGACACGTGGGGGT | -0.07 kcal/mol
TGTGACACGTGGAGTT | 0 kcal/mol
CGAGGCACGTGTCGGA | -0.02 kcal/mol
TAATACACGTGTGTAG | 0.13 kcal/mol
TGATCCACGTGGGTTT | -0.05 kcal/mol
TTCTCCACGTGGTGTA | -0.05 kcal/mol
TATTCCACGTGGGTAT | -0.13 kcal/mol
ACGTGCACGTGTGTAT | -0.15 kcal/mol
GAGTTCACGTGGGAGG | 0.39 kcal/mol

Sequence | relative binding free energy
GTAATCACGTGAGGCG | 0.3 kcal/mol
GTGGTCACGTGGACGG | 0.13 kcal/mol
TAGCGCACGTGGGAGT | -0.2 kcal/mol
AATTGCACGTGTCGGT | 0.06 kcal/mol
TGATGCACGTGCTGAT | -0.05 kcal/mol
GAAGGCACGTGTGGCG | 0 kcal/mol
GGGAGCACGTGCATTG | -0.01 kcal/mol
CAAGGCACGTGTGGGA | -0.11 kcal/mol
AAAGGCACGTGTTAGT | 0.02 kcal/mol
AGGTGCACGTGGGATG | -0.14 kcal/mol
CTTAACACGTGGTCGT | -0.01 kcal/mol
TAGGGCACGTGGGTAT | -0.24 kcal/mol
GAAGTCACGTGTGTGT | 0.28 kcal/mol
TTGGTCACGTGAGTTG | 0.26 kcal/mol
AGAAGCACGTGGTTAG | 0 kcal/mol
ACTGGCACGTGTGAAT | 0.03 kcal/mol
GTGTACACGTGGGAGA | 0.02 kcal/mol
CGGGGCACGTGGGTAC | -0.37 kcal/mol
TCGTCCACGTGTGGGA | 0.12 kcal/mol
GAGTACACGTGGATGT | 0.13 kcal/mol
GGGGTCACGTGTATAG | 0.06 kcal/mol
GTGTCCACGTGGATGA | 0.19 kcal/mol
GTGATCACGTGAGTAG | 0.29 kcal/mol

Sequence | relative binding free energy
GCGGTCACGTGACTGT | 0.33 kcal/mol
CGTGACACGTGCAGGT | -0.07 kcal/mol
TTGTGCACGTGAGTTT | 0.28 kcal/mol
ATGTGCACGTGAAGGC | 0.09 kcal/mol
TATATCACGTGTGAGT | 0.18 kcal/mol
CGATACACGTGGGGGG | -0.26 kcal/mol
ACTATCACGTGAGGTT | 0.39 kcal/mol
GGGGACACGTGGCTGA | -0.1 kcal/mol
CTAGACACGTGGTTTG | -0.09 kcal/mol
GGAAGCACGTGATGAT | 0.11 kcal/mol
GTGCGCACGTGGAGCG | -0.03 kcal/mol
ATAGGCACGTGAGGAG | 0.05 kcal/mol
ATGCGCACGTGATTGG | 0.07 kcal/mol
TTAGTCACGTGATGGG | 0.26 kcal/mol
CTAGGCACGTGTTTTA | 0.05 kcal/mol
TTTTACACGTGGGTCA | 0.06 kcal/mol
AGAATCACGTGGGCGG | -0.13 kcal/mol
GTAAACACGTGGCTGG | 0.02 kcal/mol
TGTGTCACGTGAGCTC | 0.24 kcal/mol
ATCGTCACGTGATGGT | 0.12 kcal/mol
CCGGACACGTGAGGGT | 0.18 kcal/mol
TCGTGCACGTGTGTGC | -0.08 kcal/mol
TTTAGCACGTGTGCGT | -0.08 kcal/mol

Sequence | relative binding free energy
TCTGTCACGTGGCTTT | 0.05 kcal/mol
TCGGGCACGTGACTGG | 0.05 kcal/mol
TTTTTCACGTGCGGTC | 0.32 kcal/mol
GGTCTCACGTGTAGGA | 0.2 kcal/mol
GGAAGCACGTGGATGC | 0.06 kcal/mol
AGTGGCACGTGATGTA | -0.01 kcal/mol
GTTTACACGTGTCTGA | 0.14 kcal/mol
GTACGCACGTGATAGG | 0.14 kcal/mol
AAGTTCACGTGTGTGA | 0.14 kcal/mol
TTGTACACGTGTATTC | 0.07 kcal/mol
ATAGTCACGTGGGAGT | 0 kcal/mol
AGTCGCACGTGTGAGG | 0.02 kcal/mol
TAGTCCACGTGTTTTA | 0.13 kcal/mol
AATCGCACGTGTGGGG | -0.08 kcal/mol
TGGTGCACGTGCTTGC | -0.1 kcal/mol
AGGCACACGTGGGGCT | -0.03 kcal/mol
GAACGCACGTGGGTTG | -0.17 kcal/mol
GGGTGCACGTGTCGTC | 0.03 kcal/mol
ATGGTCACGTGTATAG | 0.08 kcal/mol
GGATGCACGTGGGTGT | -0.16 kcal/mol
GGATTCACGTGGGTGG | 0.19 kcal/mol
AGGGCCACGTGACTGG | 0.08 kcal/mol
GGCTGCACGTGTATGG | 0.18 kcal/mol

Sequence | relative binding free energy
TTCTCCACGTGTGTTT | 0.18 kcal/mol
GAGGTCACGTGTGTAA | 0.27 kcal/mol
CTAGGCACGTGTTTAG | -0.23 kcal/mol
CGTAACACGTGAGTTG | 0.33 kcal/mol
TGTAGCACGTGGGTAG | -0.13 kcal/mol
GGGTTCACGTGTTTGA | 0.32 kcal/mol
TTGTACACGTGAAGGT | 0.22 kcal/mol
TGGTTCACGTGTGTAT | 0.37 kcal/mol
ATTGTCACGTGGGCGG | -0.07 kcal/mol
TATGTCACGTGGACTT | -0.01 kcal/mol
ATGGGCACGTGAATGT | 0.06 kcal/mol
GTTTGCACGTGCGAGG | 0.01 kcal/mol
TTAGGCACGTGGTGTG | -0.26 kcal/mol
ATGTGCACGTGGGGGT | -0.19 kcal/mol
GTAGACACGTGGATTT | 0.27 kcal/mol
AGATTCACGTGGGTTT | 0.23 kcal/mol
ATCTTCACGTGTAGGG | 0.12 kcal/mol
CTAGCCACGTGGGGTT | -0.2 kcal/mol
AAAATCACGTGGGGGT | 0.14 kcal/mol
TAGGGCACGTGGGTGA | -0.24 kcal/mol
GGGCTCACGTGATTGT | 0.29 kcal/mol
GGGTCCACGTGCCGGG | -0.14 kcal/mol
ACATTCACGTGTCGGT | 0.3 kcal/mol
